In this experiment the target is TMPRSS2-HiBiT (Homo sapiens, UniProt O15393). Briefly: Cell-based proline treatment, TMPRSS2-HiBiT signal in Beas-2B cells. As to conditions: replicates, listed as HFG. A general note: The HiBiT peptide binds its large partner to form an active luciferase.

The structures appear in SMILES notation. Several values for one entry are separate records, joined by “and”; a condition that tells them apart may be missing. Equal entries are not always repeated.

Chain of TMPRSS2-HiBiT (O15393 whole entry): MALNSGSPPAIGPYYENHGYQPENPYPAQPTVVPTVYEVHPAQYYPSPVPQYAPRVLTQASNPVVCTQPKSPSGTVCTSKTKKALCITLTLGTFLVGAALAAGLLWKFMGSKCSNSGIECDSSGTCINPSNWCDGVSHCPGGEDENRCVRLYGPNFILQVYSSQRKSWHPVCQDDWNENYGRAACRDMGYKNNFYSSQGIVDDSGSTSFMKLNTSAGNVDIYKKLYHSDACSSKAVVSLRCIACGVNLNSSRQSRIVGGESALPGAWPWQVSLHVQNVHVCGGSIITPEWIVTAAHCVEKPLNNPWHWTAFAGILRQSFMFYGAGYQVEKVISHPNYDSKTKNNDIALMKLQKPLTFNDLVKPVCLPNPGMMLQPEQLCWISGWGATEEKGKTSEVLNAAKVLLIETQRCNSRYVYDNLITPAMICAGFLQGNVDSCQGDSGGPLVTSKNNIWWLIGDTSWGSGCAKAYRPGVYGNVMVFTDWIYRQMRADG

As to `O=C(CC1NCCCC1O)Cn1cnc2cc(Br)c(Cl)cc2c1=O` (stereo not drawn) [Halofuginone], the “TMPRSS2-HiBiT signal (raw values)” value is 442390 and 513361 and 438451 (HFG 4e-9 M, No Proline); 520631 and 433215 and 519995 (HFG 1.235e-8 M, 1mM Proline); 507005 and 340476 and 451268 (HFG 1.235e-8 M, No Proline); 434217 and 395431 and 483610 (HFG 3.704e-8 M, 1mM Proline); 603827 and 463851 and 425233 (HFG 3.704e-8 M, No Proline); 370404 and 553480 and 490249 (HFG 1.111e-7 M, 1mM Proline). The “TMPRSS2-HiBiT signal (raw values)” value is, setting by setting: (HFG 3.333e-7 M, 1mM Proline) 362092 and 264512 and 406364; (HFG 3.333e-7 M, No Proline) 2402 and 2183 and 3253; (HFG 1e-6 M, 1mM Proline) 18412 and 14790 and 25079; (HFG 1e-6 M, No Proline) 2348 and 2151 and 2195; (HFG 3e-6 M, 1mM Proline) 2822 and 2705 and 2441; (HFG 3e-6 M, No Proline) 2889 and 2914 and 2345.
